# Source: PubChem BioAssay AID624330 (Southern Research Specialized Biocontainment Screening …, 2012)
# Among all 340,000 compounds or so, about 2,100 (0.62%) were called active. Inconclusive results, whose numbers are uncertain, are shown with a selection of clear calls.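 How the source made its calls: active means first-screen hits whose inhibition reached a set limit at any dose in the follow-up dose series; inconclusive means inhibition above the set first-screen limit but never retested; inactive means the rest.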
# Molecular target: Rac GTPase-activating protein 1 (Homo sapiens) (UniProt Q9H0H5)
# Test: blockers of MgcRacGAP-driven Rac1 GTP hydrolysis – biochemical, ADP Hunter fluorescence, primary and confirmatory, confirmation (AID 624330);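 further: fluorescence reports GDP produced by GAP-driven GTP hydrolysis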
# Conditions: MgcRacGAP-stimulated Rac1 GTP hydrolysis, at 30 µM, hits give high values, GST-tagged Rac1 F28L mutant substrate
# Sequence of UniProt Q9H0H5 (Q9H0H5 whole entry, looked up): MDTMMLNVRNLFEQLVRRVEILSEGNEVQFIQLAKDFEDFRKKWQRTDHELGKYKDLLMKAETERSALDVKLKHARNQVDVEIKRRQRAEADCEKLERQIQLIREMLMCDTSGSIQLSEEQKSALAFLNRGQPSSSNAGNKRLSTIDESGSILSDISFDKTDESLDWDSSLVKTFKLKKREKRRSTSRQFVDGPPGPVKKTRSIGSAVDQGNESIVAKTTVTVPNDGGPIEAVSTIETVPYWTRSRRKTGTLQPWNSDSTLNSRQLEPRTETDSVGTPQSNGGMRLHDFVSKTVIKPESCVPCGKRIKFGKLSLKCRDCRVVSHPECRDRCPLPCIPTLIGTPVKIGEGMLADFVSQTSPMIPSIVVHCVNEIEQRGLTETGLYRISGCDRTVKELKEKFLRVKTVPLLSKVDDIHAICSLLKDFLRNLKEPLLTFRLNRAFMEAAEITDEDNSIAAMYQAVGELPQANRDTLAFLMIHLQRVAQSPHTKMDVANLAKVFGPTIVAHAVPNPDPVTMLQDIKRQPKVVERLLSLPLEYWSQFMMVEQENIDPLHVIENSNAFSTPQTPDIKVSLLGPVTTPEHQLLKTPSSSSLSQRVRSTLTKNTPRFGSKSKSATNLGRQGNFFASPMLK
row,SMILES,inhibition
1,N#Cc1ccc(OCC(=O)N2CCN(C(=O)c3ccco3)CC2)cc1,inactive: 3.79%
2,Brc1ccc(C=Nc2ccc3c(c2)OCCOCCOCCO3)s1,inconclusive: 34.8%
3,Cc1c(O)c(CN(C)C)cc2c1oc(=O)c1ccccc12,inconclusive: 36%
4,COc1cc(/C=N/NC(=O)C(=O)/C=C2\NC3(CCCC3)Cc3ccccc32)ccc1O,inconclusive: 32%
5,O=C(Nc1ccc(N2CCCC2)cc1)C(Cl)c1ccccc1 (stereo unspecified),inconclusive: 44.9%
6,Nc1ccc(NC(=O)NC2CCCCC2)cc1,inconclusive: 53.4%
7,C=C1C(=O)C=C2CN(C(=O)c3ccccc3)[C@@](Cc3ccc(F)cc3)(C(=O)OC)[C@@H]12,inconclusive: 50%
8,CCCCC(=O)NNC(=O)N1c2ccccc2Sc2ccccc21,inconclusive: 32.5%
9,COCCNc1c(-c2cc3ccc(C)c(C)c3[nH]c2=O)nc2ccccn12,inconclusive: 34.6%
10,CN(C)c1ccc(Nc2nc(N)c3ccccc3n2)cc1,inconclusive: 84.7%
11,CCC(C)c1ccc(NC(=S)NCCn2cc(Cl)cn2)cc1 (stereo unspecified),inactive: 10.6%
12,Cc1cc(NCCO)c2cc(O)ccc2n1,inactive: 15%
13,COc1cc2c(cc1NC(=O)c1ccncc1)oc1ccccc12,inactive: 14.9%
14,COc1cc(/C=C(\C#N)c2ccccn2)cc(OC)c1O,inconclusive: 44.4%
15,Oc1ccc2nc(Cc3ccccc3)[nH]c2c1,inconclusive: 66.8%
16,CC(C)CN1CCC(Oc2cccc(C(=O)NCCc3ccccc3)c2)CC1,inactive: 11.2%
17,C[C@@H]1CN([C@@H](C)CO)C(=O)c2cc(Br)cnc2O[C@H]1CN(C)C(=O)CCN1CCCCC1,inactive: 14.8%
18,COc1ccc(N2CCC(CNC(=O)Nc3ccc(OC)cc3OC)C2)cc1 (stereo unspecified),inconclusive: 41.4%
19,Cc1ccc(N=C(N)N=C(N)N)cc1,inactive: 16.3%

row,SMILES,inhibition
1,c1ccc(CN2CCN(CCOCCOc3cccc4ccccc34)CC2)cc1,inconclusive: 33%
2,C#CCOCCOCCOCCNc1nc(N2CCN(C(=O)CCCCCCCCCCNC(=O)[C@H](CCCCN)n3cc(CCO)nn3)CC2)nc(N2CCN(C(=O)CCCCCCCCCCNC(=O)[C@H](CCCN=C(N)N)n3cc(C[C@@H](C)CC)nn3)CC2)n1,inconclusive: 71.4%
3,COc1ccc(N2CCN(C(CNC(=O)c3ccco3)c3cccnc3)CC2)cc1 (stereo unspecified),inconclusive: 35.2%
4,O=C1N/C(=C\c2ccc(O)cc2)C(=O)c2ccccc21,inconclusive: 85%
5,COc1cc(/C=C/C(=O)OCC(=O)Nc2cc(S(=O)(=O)N3CCCC3)ccc2Cl)cc(OC)c1OC,inactive: -3.8%
6,COc1ccc(NC2CCCN(C(=O)CCCn3cncn3)C2)cc1 (stereo unspecified),inconclusive: 41.6%
7,CCCCCCC(=O)OCC(=O)c1ccc2c(c1)NC(=O)CO2,inactive: 4%
8,NC(=O)/C(=C/c1ccco1)C(N)=S,inconclusive: 32.8%
9,Cn1c(=O)c2c(nc(CN3CCCCC3)n2CCc2ccccc2)n(C)c1=O,inactive: 18.6%
10,Cc1nc(N/N=C/c2ccc(O)cc2O)cc(N2CCOCC2)n1,inconclusive: 102%
11,CC1CCN(CCCCOc2cccc(C(C)C)c2)CC1,inconclusive: 35%
12,Cc1cc(O)ccc1Nc1nc(-c2sc(N)nc2C)cs1,inconclusive: 32.9%
13,N#C/C(=C\c1ccc(O)c(O)c1)C(=O)c1ccc(O)c(O)c1,inconclusive: 58.2%
14,COc1ccccc1NC(=O)C(C)n1cnc2c(oc3nc4c(cc32)CCCC4)c1=O (stereo unspecified),inactive: -4.17%
15,Cn1c(-c2ccccc2)cnc1NCc1cc2c(cc1[N+](=O)[O-])OCO2,inconclusive: 34.9%
16,O=C(Nc1ccc(Cl)c(Cl)c1)Oc1ccc(NC(=O)c2ccco2)cc1,inconclusive: 47.2%
17,Nc1ccc2nc(CCCCCCCCc3nc4ccc(N)cc4[nH]3)[nH]c2c1,inconclusive: 72.6%
18,CCN(CCO)C(=O)CC1C(=O)NCCN1Cc1c(F)cccc1Cl (stereo unspecified),inactive: 9.19%
19,O=C(c1coc(=O)c(Br)c1)N1CCCc2ccccc21,inconclusive: 67.5%

row,SMILES,inhibition
1,CCCN(CCC)CC(C)(C)NS(=O)(=O)c1ccc(Cl)cc1,inconclusive: 34.4%
2,CCn1c(SCC(=O)c2ccc(O)c(O)c2)nnc1-c1ccc(C)cc1,inconclusive: 50.5%
3,C#CCOCCOCCOCCNc1nc(N2CCN(C(=O)[C@H](CCCN=C(N)N)n3cc(C(N)[C@@H](C)CC)nn3)CC2)nc(N2CCN(C(=O)[C@H](CCCCN)n3cc([C@@H](N)[C@H](C)CC)nn3)CC2)n1 (stereo partly specified),inconclusive: 35.7%
4,COc1ccc2[nH]c3c(=O)n(CCCCC(=O)NCCN4CCCC4)c(=S)[nH]c3c2c1,inconclusive: 50.3%
5,O=C1NN(c2ccccc2)C(=O)/C1=C/c1ccc(-c2cccc(C(=O)O)c2)o1,inconclusive: 33.7%
6,CC(C)c1ccccc1OCCCN1CCCC1,inconclusive: 34.6%
7,c1cncc(-c2nnc3n2N=C(c2cccs2)CS3)c1,inactive: 7.37%
8,Cc1cc(N/N=C/c2ccc(O)cc2)nc(NS(=O)(=O)c2ccccc2)n1,inconclusive: 33.3%
9,CCCn1c(=O)c2ccccc2n2c(=S)[nH]nc12,inconclusive: 103%
10,COc1ccc2nc3ccccc3nc2c1N,inconclusive: 57.7%
11,Oc1ccc(Nc2nc(-c3cccnc3)cs2)cc1,inconclusive: 48.3%
12,O=C1N/C(=C\c2ccccc2)C(O)=C1C=NCc1ccccc1,inactive: 3.17%
13,O=C1NN(c2ccccc2)C(=O)/C1=C/c1coc2ccccc2c1=O,inconclusive: 32.2%
14,CCNc1c2c(nc3ccccc13)CC(C)(C)CC2=O,inconclusive: 34.3%
15,O=C(NCc1cccnc1)C1CC(c2cccc(Br)c2)=NO1 (stereo unspecified),inactive: 0.07%
16,CC(C)C1Nc2ccc(C(=O)O)cc2C2C=CCC21 (stereo unspecified),inconclusive: 33.6%
17,CCCCCN(C(=O)CCC(=O)OCC(=O)c1c(C)cc(C)cc1C)c1c(N)n(CCCC)c(=O)[nH]c1=O,inactive: 3.32%
18,Cc1ccc(S(=O)(=O)c2c(COC(=O)c3ccccc3Cl)c(-c3ccccc3)nn2C)cc1,inactive: 4.7%
